Source: a compilation of properties of binary mixtures (doi:10.1016/j.cclet.2012.09.020)
Some of these densities may be calculated back from excess volumes.

Assay: xn = mol fraction of the nth substance listed
Conditions: 298.15 K, 101 kPa

In the case of `CO` + CC[n+]1ccn(C)c1.O=[N+]([O-])[O-], the mass density (x1 = 1) is reported as 791.4 kg/m3.
Work on `CC[n+]1ccn(C)c1.O=[N+]([O-])[O-]` + CCO yielded a mass density (x2 = 0) of 1208.5 kg/m3, a mass density (x2 = 0.2) of 1157.2 kg/m3 and a mass density (x2 = 0.332) of 1130.8 kg/m3. For the same molecule, the mass density (x2 = 0.3996) was 1117 kg/m3, the mass density (x2 = 0.5) was 1089.4 kg/m3 and the mass density (x2 = 0.6) was 1054.8 kg/m3. It also gave a mass density (x2 = 0.7063) of 1009.1 kg/m3, a mass density (x2 = 0.799) of 958.3 kg/m3 and a mass density (x2 = 0.9005) of 891.3 kg/m3.
Work on `CCO` + CC[n+]1ccn(C)c1.O=[N+]([O-])[O-] yielded a mass density (x1 = 1) of 787.9 kg/m3.
Work on `CC[n+]1ccn(C)c1.O=[N+]([O-])[O-]` + CO yielded a mass density (x2 = 0) of 1208.5 kg/m3, a mass density (x2 = 0.1005) of 1188.6 kg/m3 and a mass density (x2 = 0.2004) of 1176 kg/m3. For the same molecule, the mass density (x2 = 0.2997) was 1158.2 kg/m3, the mass density (x2 = 0.4005) was 1144.3 kg/m3 and the mass density (x2 = 0.501) was 1122.4 kg/m3. It also gave a mass density (x2 = 0.6) of 1091.6 kg/m3, a mass density (x2 = 0.7) of 1054.6 kg/m3 and a mass density (x2 = 0.8) of 1000.7 kg/m3. The mass density (x2 = 0.9) was 918.4 kg/m3.
